Measured values taken from PubChem BioAssay AID1508642 (National Center for Advancing Translational Sciences (NCATS), 2021).
Among all 43,000 compounds or so, about 200 (0.47%) were called active. The shares of active, inactive and inconclusive entries below differ from those in the screen. Calls come from the whole dose curve; as a rule, active = well fitted cell-killing curve with a large enough effect; inconclusive = small, poorly fitted or top-dose-only effect, or effect the other way; inactive = flat fitted curve, though single readings scatter. Potencies beside an inconclusive call are fits to weak or partial responses and may not hold up.

Assay: Cell viability qHTS assay in S16 Pmp22-F2sN cells; note: nearly all actives have a fitted effect of over 65% in size
Conditions: S16 Pmp22-F2sN Schwann cells viability, CellTiter-Glo, 24 h; activity change, negative = cytotoxicity: at 57.5 µM (top of the series)
Summary of the method: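 Used to flag compounds lowering reporter output through toxicity, this quantitative HTS measures ATP-based CellTiter-Glo luminescence in S16 Pmp22-F2sN Schwann cells after 24 h compound exposure at 37C.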
% is set by controls: 0 for no effect and ±100 for the full control effect; potency is the fitted concentration of half-maximal effect; tags give direction and shape of the fitted curve.

| Structure (SMILES) | Potency | activity change, negative = cytotoxicity |
| --- | --- | --- |
| CCOc1ccc(NC(=O)CSc2oc(-c3ccco3)nc2S(=O)(=O)c2ccc(Cl)cc2)cc1 | inconclusive: 28.2 µM [cytotoxic, partial curve, poor fit] | – |
| Cc1[nH]c2ccccc2c1C1(O)C(=O)N(Cc2ccccc2)c2ccc(Br)cc21 (centres undefined) | – | inactive: -9.45% |
| CCCS(=O)(=O)NCCc1sc2nc(-c3ccc(Cl)cc3)nn2c1C | inconclusive: 2 µM [cytotoxic, full curve] | – |
| Cc1nnc(SCC(=O)NCc2cccc(F)c2)c2nn(-c3ccccc3)c(C)c12 | inconclusive: 10 µM [cytotoxic, partial curve] | – |
| COc1ccc(-n2nc3c(N4CCCC(C(=O)NCc5ccccc5C)C4)nnc(C)c3c2C)cc1 (centres undefined) | active: 25.1 µM | – |
| Cc1ccc(-n2ncc(C(=O)NCCN3CCc4ccccc4C3)c2C2CCN(C(=O)OC(C)(C)C)CC2)c(C)c1 | inconclusive: 20 µM [cytotoxic, partial curve, poor fit] | – |
| O=C(CN1C(=O)COc2ccc(S(=O)(=O)NC3CCCC3)cc21)Nc1ccc(F)c(Cl)c1 | inconclusive: 39.8 µM [cytotoxic, partial curve, poor fit] | – |
| Cc1c(C(=O)NCc2ccc(Cl)cc2)oc2ccc3c(c12)C(=O)CC(C)(C)O3 | inconclusive: 28.2 µM [cytotoxic, single point] | – |
| CCCCOc1ccc(CNC(=O)c2cccc(NC(=O)N3CCSc4ncccc43)c2)cc1 | inconclusive: 15.8 µM [cytotoxic, partial curve] | – |
| COc1cc(NC(=O)c2ccc(C)c(Cl)c2)ccc1NC(=O)c1cc2ccccc2o1 | inconclusive: 7.08 µM [cytotoxic, single point] | – |
| CC1CN(C(=O)N2CCC(C(=O)NCCCc3ccccc3)CC2)c2cc(Cl)ccc2O1 (centres undefined) | inconclusive: 31.6 µM [cytotoxic, single point] | – |
| CCOc1ccc(CNC(=O)c2ccc3oc(=O)n(Cc4ccccc4)c3c2)cc1 | inconclusive: 31.6 µM [cytotoxic, partial curve, poor fit] | – |
| Fc1ccc(N2CCN(c3nc4ccccc4c4nc(-c5ccccc5)nn34)CC2)cc1 | inconclusive: 10 µM [rising, partial curve, poor fit] | – |
| CCNS(=O)(=O)c1ccc(NC(=O)CSc2nc(-c3ccco3)cc(C(F)(F)F)n2)cc1 | – | inactive: -17.6% |
| COc1ccccc1CNC(=O)c1c[nH]c2ccc(S(=O)(=O)Nc3cc(C)cc(C)c3)cc2c1=O | inconclusive: 6.31 µM [cytotoxic, partial curve, poor fit] | – |
| Cc1cc(C)c(NC(=O)CSc2ccc(-c3ccccn3)nn2)c(C)c1 | inconclusive: 3.55 µM [rising, partial curve, poor fit] | – |
| COC(=O)c1cc2sc(Cl)cc2n1CC(=O)Nc1cc(C)cc(C)c1 | inconclusive: 39.8 µM [cytotoxic, single point] | – |
| O=C(NCc1ccccc1F)c1ccc(CSc2nc3cccnc3n2Cc2ccccc2)cc1 | inconclusive: 39.8 µM [cytotoxic, single point] | – |
| N#CC1=C2SCN(C3CCCCC3)CN2C(=O)CC1c1ccc(Cl)cc1 (centres undefined) | – | inactive: -0.421% |
| Cc1cc(N2CCCCC2)nc2ccc(NC(=O)CCC(=O)N3CCN(c4ccccc4)CC3)cc12 | inconclusive: 25.1 µM [cytotoxic, single point] | – |

| Structure (SMILES) | Potency | activity change, negative = cytotoxicity |
| --- | --- | --- |
| O=S(=O)(NCc1nc2cccnc2n1Cc1ccccc1Cl)c1ccc(F)c(Cl)c1 | inconclusive: 28.2 µM [cytotoxic, single point] | – |
| CCOc1ccc(N(Cc2ccccc2)C(=O)c2nc(S(C)(=O)=O)ncc2Cl)cc1 | active: 3.55 µM | – |
| CC1CCN(c2nc3ccc(C(=O)NCc4ccccc4)cc3s2)CC1 | inconclusive: 1.26 µM [rising, partial curve, poor fit] | – |
| Cc1cccc(-n2nc(C)c(C(=O)Nc3cc(C)ccc3C)c2-n2cccc2)c1 | inconclusive: 20 µM [cytotoxic, partial curve, poor fit] | – |
| OCCN(CCO)c1ncnc2c1cnn2-c1ccc(F)cc1 | – | inactive: 6.92% |
| COc1ccc(-c2cc(C(F)(F)F)nc(NCCc3ccccc3)n2)cc1OC | – | inactive: 4.21% |
| CC(=O)Nc1nnc(SCc2cc(=O)c3cc(C)ccc3[nH]2)s1 | inconclusive: 35.5 µM [cytotoxic, partial curve, poor fit] | – |
| Cc1ccc(NCc2cccn2-c2nnc(N3CCCCCC3)s2)cc1 | – | inactive: -0.337% |
| COc1cc(C(=O)Nc2ccc3nn(-c4ccc(F)cc4)nc3c2)cc(OC)c1OC | inconclusive: 8.91 µM [rising, full curve, poor fit] | – |
| CC1=C(C(=O)OCC2CCCCC2)C(c2ccc(F)cc2F)CC(=O)N1 (centres undefined) | inconclusive: 25.1 µM [rising, partial curve, poor fit] | – |
| COc1ccc(S(=O)(=O)N(Cc2nc(-c3ccc(C)cc3)no2)C2CCCCC2)cc1 | inconclusive: 35.5 µM [cytotoxic, partial curve, poor fit] | – |
| CCN1c2ccccc2-n2cccc2C12CCN(C(=O)Nc1ccccc1C(F)(F)F)CC2 | inconclusive: 0.447 µM [rising, partial curve, poor fit] | – |
| CCOc1ccc2nc(N3CCN(C(=O)CS(=O)(=O)c4ccc(F)cc4)CC3)sc2c1 | inconclusive: 14.1 µM [cytotoxic, partial curve] | – |
| CCn1c(C(=O)N2CCC(C(=O)N3CCN(c4cccc(C)c4C)CC3)CC2)cc2sccc21 | inconclusive: 28.2 µM [cytotoxic, single point] | – |
| CCc1ccccc1NC(=O)c1cc(S(=O)(=O)N(CC)c2ccccc2)ccc1F | inconclusive: 25.1 µM [cytotoxic, single point] | – |
| Cc1ccc(S(=O)(=O)N2CCC(Oc3ccc(-n4cnnn4)cc3)CC2)cc1 | inconclusive: 3.55 µM [rising, single point] | – |
| CCn1cc(S(=O)(=O)c2cc(C)cc(C)c2)c(=O)c2cc(F)c(N3CCOCC3)cc21 | inconclusive: 10 µM [cytotoxic, partial curve, poor fit] | – |
| COc1ccc2nc(N(Cc3cccnc3)C(=O)CCc3ccccc3)sc2c1 | inconclusive: 14.1 µM [cytotoxic, partial curve] | – |
| Cn1nc(C(=O)NCc2ccc(Cl)cc2)c2c1-c1ccccc1S(=O)(=O)C2 | inconclusive: 31.6 µM [cytotoxic, partial curve, poor fit] | – |
| COc1ccc(CNC(=O)Cn2c(SCC(=O)Nc3ccc(OC)cc3)nc3ccccc32)cc1 | inconclusive: 35.5 µM [cytotoxic, single point] | – |

| Structure (SMILES) | Potency | activity change, negative = cytotoxicity |
| --- | --- | --- |
| COc1ccc(Cl)cc1NC(=O)c1cc(S(=O)(=O)NC2CCCCCC2)ccc1F | inconclusive: 22.4 µM [cytotoxic, single point] | – |
| COc1ccccc1N1CCN(c2ncnc3c2cnn3-c2cc(Cl)ccc2C)CC1 | inconclusive: 39.8 µM [cytotoxic, single point] | – |
| Cc1ccc(CSc2nc3ccc(NC(=O)COc4ccccc4)cc3s2)cc1 | – | inactive: 6.72% |
| CCOC(=O)c1ccc(N2C(=O)c3[nH]nc(-c4ccc(C)cc4)c3C2c2cccc(F)c2)cc1 (centres undefined) | inconclusive: 39.8 µM [cytotoxic, single point] | – |
| CCOc1ccc(NC(=O)CSC2=Nc3ccccc3C3=NC(CCC(=O)NCc4ccccc4)C(=O)N23)cc1 (centres undefined) | inconclusive: 31.6 µM [cytotoxic, single point] | – |
| CCc1nnc(NC(=O)c2nc(S(=O)(=O)Cc3ccc(C)cc3)ncc2Cl)s1 | inconclusive: 25.1 µM [cytotoxic, single point] | – |
| COc1ccc(-c2[nH]c(-c3cccc(OC)c3)nc2SCC(=O)Nc2ccc3c(c2)OCO3)cc1 | inconclusive: 3.55 µM [rising, partial curve, poor fit] | – |
| COc1cccc(C(=O)NCc2ccc3c(c2)CCN3C(=O)c2ccncc2)c1 | – | inactive: -2.11% |
| COc1ccc(NC(=O)c2ccc(-c3nc(CSc4ccc(C)cc4)c(C)o3)cc2)cc1Cl | inconclusive: 25.1 µM [cytotoxic, single point] | – |
| CCCCCN1C(C(=O)c2ccccc2)=C(NC(=O)c2ccc(OC)cc2)c2ccccc2S1(=O)=O | inconclusive: 39.8 µM [cytotoxic, single point] | – |
| O=C(Nc1ccc(C(=O)N2CCN(c3cccc(Cl)c3)CC2)cc1)c1nsc2ccccc12 | inconclusive: 31.6 µM [cytotoxic, single point] | – |
| CCC1(C)CC(=O)c2c(ccc3oc(C(=O)NCc4ccccc4)c(C)c23)O1 (centres undefined) | inconclusive: 39.8 µM [cytotoxic, single point] | – |
| Cc1ccc2oc3c(c(=O)c2c1)C(c1ccc(O)cc1)N(Cc1ccc2c(c1)OCO2)C3=O (centres undefined) | inconclusive: 39.8 µM [cytotoxic, single point] | – |
| CN1CCN(C2(CNC(=O)c3ccc(C(C)(C)C)cc3)CCCCC2)CC1 | inconclusive: 22.4 µM [cytotoxic, partial curve, poor fit] | – |
| CCOc1ccc(C(=O)/C=C/c2cn(CC(O)CN3CCCCCC3)c3ccccc23)cc1 (centres undefined) | inconclusive: 35.5 µM [cytotoxic, single point] | – |
| O=C(CCS(=O)(=O)c1nc(-c2cccs2)cc(C(F)(F)F)n1)Nc1ccc(OC(F)(F)F)cc1 | inconclusive: 28.2 µM [rising, single point] | – |
| COc1ccc(C2c3c(oc4ccccc4c3=O)C(=O)N2Cc2ccc3c(c2)OCO3)cc1 (centres undefined) | – | inactive: -4.77% |
| O=C(Cn1c(SCc2cccc(F)c2)nc2cccnc21)Nc1ccc(F)c(Cl)c1 | – | inactive: -0.902% |
| CC(C)(C)c1ccc(Cn2c(Cc3ccccc3)nc3ccccc32)cc1 | inconclusive: 20 µM [cytotoxic, single point] | – |
